28 molecules from PubChem BioAssay AID1508623 (National Center for Advancing Translational Sciences (NCATS), 2021) can be followed below.

The campaign covered roughly 48,000 compounds. About 450 (0.94%) were called active. About 19% were inconclusive and are not listed. Calls come from the whole dose curve; as a rule, active = well fitted inhibition curve with a large enough effect; inconclusive = small, poorly fitted or top-dose-only effect; inactive = no such curve, though single readings can be large or run the other way. The list shows a part of the results.

The nature of the assay: Primary qHTS for Identification of Small Molecule Inhibitors of Huntingtin Promoter Activity. Note: nearly all actives have a fitted effect of over 50% in size. To be noted: HEK293 HTT promoter firefly luciferase reporter (activity 0% = vehicle and -100% = no light), 24 h; series mostly up to 57.5 µM; activity change, negative = inhibition: at the top concentration. The essentials: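 Firefly luciferase signal from promoter-reporter HEK293 cells was scaled between vehicle (0%) and zero RLU (-100%). Compounds were tested at final concentrations of up to 57.5 uM over 24 h at 37 degrees C. PTC124 at 50 uM final served as control inhibitor.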
Consider `O=C(CSc1c2c(nc3ccc(Cl)cc13)CCCC2)N1CCCCC1`, for which the “activity change, negative = inhibition” value is inactive: -14%.

Turning to `CCOc1ccc(CCNC(=O)c2cc3cc4ccc(OC)cc4nc3s2)cc1OCC`, the “activity change, negative = inhibition” value was inactive: -2.69%.

For the molecule `Cc1ccccc1OCC(=O)Nc1ccc(S(=O)(=O)Nc2ncccn2)cc1`, the “activity change, negative = inhibition” value was inactive: -7.59%.

For the molecule `Nc1c2c(nc3c1CCC3)CCCC2`, the “activity change, negative = inhibition” value was inactive: -3.87%.

For the molecule `COCCNC(=O)C(=O)Nc1ccc2nc3n(c(=O)c2c1)CCCCC3`, the “activity change, negative = inhibition” value was inactive: 2.84%.

With `C=Cc1ccc(Cn2c(C(=O)O)c(CNCc3cc(OC)ccc3OC)c3ccc(C)cc32)cc1`, the “activity change, negative = inhibition” value was inactive: -5.19%.

For the molecule `COc1ccc(CCNC(=O)C(C)n2nc(C)c3sc4ccccc4c3c2=O)cc1OC` (stereo not drawn), the “activity change, negative = inhibition” value is inactive: -14.1%.

Consider `CCOc1ccc(C2C(C(=O)Nc3ccc(C)cc3C)=C(C)Nc3c(C(=O)Nc4ccc(C)cc4)cnn32)cc1OC` (stereo not drawn), for which the “activity change, negative = inhibition” value was inactive: 2.63%.

For the molecule `COc1ccc(-c2nc(C)c(CCNC(=O)c3cccc(C)c3)s2)cc1OC`, the “activity change, negative = inhibition” value is inactive: 22%.

`COc1ccc(C2NC(=O)N(C)C3=C2C(=O)N(c2ccccc2)C3)cc1` (stereo not drawn): the “activity change, negative = inhibition” value is inactive: -18%.

For the molecule `COc1ccc(-c2nc3c(C#N)c[nH]n3c2NC2CCCCC2)cc1`, the “activity change, negative = inhibition” value was inactive: 18.8%.

For `COC(=O)c1cc2sccc2n1Cc1ccc(F)cc1`, the “activity change, negative = inhibition” value is inactive: -25.8%.

Turning to `CCCCC(=O)Nc1nnc(S(=O)(=O)N2CCCCCC2)s1`, the “activity change, negative = inhibition” value was inactive: 3.76%.

Take `Cc1ccc(C)c(N2CCN(C(=O)CN3C(=O)COc4ccc(S(=O)(=O)N5CCOCC5)cc43)CC2)c1`: the “activity change, negative = inhibition” value is inactive: -12.2%.

As for `CCOc1ccc(NC(=O)c2cccc(N3CCCS3(=O)=O)c2)cc1`, the “activity change, negative = inhibition” value is inactive: 7.26%.

As to `Cc1cccc(-c2cc(NC(=O)c3ccccc3C)n(-c3ccccc3)n2)c1`, the “activity change, negative = inhibition” value is inactive: 10.1%.

Turning to `CCC(=O)N1c2ccccc2CC1C(=O)NCCCN1CCN(c2ccccc2)CC1` (stereo not drawn), the “activity change, negative = inhibition” value is inactive: -10.4%.

On to `Cc1ccc(C)c(NC(=O)c2cc(S(=O)(=O)N3CCc4ccccc4C3)ccc2F)c1`, for which the “activity change, negative = inhibition” value was inactive: -4.17%.

With `COc1ccccc1CNC(=O)c1cc2sccc2n1Cc1ccc(F)cc1`, the “activity change, negative = inhibition” value was inactive: -23.5%.

As for `COc1ccc(Br)cc1CNC(=O)CCCn1c(=O)c2cccn2c2cccnc21`, the “activity change, negative = inhibition” value is inactive: -9.01%.

Take `CCCS(=O)(=O)c1c(S(=O)(=O)CCC)c2cc(C(C)(C)C)ccn2c1C(=O)c1ccc(OC)c(OC)c1`: the “activity change, negative = inhibition” value is inactive: -22.4%.

Regarding `COc1ccc(-c2noc(-c3ccccc3OCC(=O)Nc3ccc(C(C)=O)cc3)n2)cc1`, the “activity change, negative = inhibition” value is inactive: 10%.

With `O=C(Cn1ncc2c3ccccc3n(Cc3ccccc3)c2c1=O)N1CCCCCC1`, the “activity change, negative = inhibition” value was inactive: 4.87%.

Turning to `CN=C(NC#N)NCCSCc1nc[nH]c1C`, the “activity change, negative = inhibition” value was inactive: 5.13%.

On to `CCc1cccc(NC(=O)Cn2c(C(=O)OC)cc3occc32)c1`, for which the “activity change, negative = inhibition” value was inactive: -17.8%.

`COc1ccccc1NC(=O)Cn1c(=O)n(-c2ccccc2Cl)c(=O)c2sc3ccccc3c21`: the “activity change, negative = inhibition” value was inactive: -16.4%.

In the case of `CSc1cccc(Nc2ncc3cc(-c4c(Cl)cccc4Cl)c(=O)n(C)c3n2)c1`, the “activity change, negative = inhibition” value is inactive: -0.113%.

As to `Cc1ccc(CNc2ccc(-c3nc(-c4cccnc4)no3)cc2[N+](=O)[O-])cc1`, the “activity change, negative = inhibition” value was inactive: -3.32%.
